From PubChem BioAssay AID463173 (ICCB-Longwood Screening Facility, Harvard Medical School, 2010) come the findings set out here.

About 1,700 (3.3%) of roughly 52,000 compounds were called active. Rule as the data show it: active = survival mostly below about 52% (no sharp cut-off); inactive = mostly above about 56%. The list shows a part of the results.

The assay deals with Wild type. In words: growth inhibition of S. aureus wild type versus tarO mutant, primary screen, teichoic acid synthesis inhibitors, RN4220, OD600 (AID 463173). The conditions noted are these: S. aureus RN4220 wild type/DeltatarO growth, OD600, 18 h, active compounds read low, screened at 18.75 µg/mL (by protocol).
Regarding `COC(=O)c1cc2sc(C)cc2n1Cc1nc(-c2ccc(C)cc2)oc1C`, the survival is inactive: 114%.
The figure for `O=C(NCCc1ccc(Cl)cc1)C(=O)NCC(c1cccs1)S(=O)(=O)c1ccccc1` (centres undefined) is inactive: 73%.
The figure for `O=C(CSc1nnc(-c2ccccc2O)o1)Oc1ccc(OCc2ccccc2)cc1` is inactive: 106%.
With `Cc1ccc(Nc2c(-c3ccc(C)cc3)nc3c(C)cccn23)cc1`, the survival was active: -1%.
The figure for `CC(C)c1ccc(Nc2c(-c3ccc(N(C)C)cc3)nc3cnccn23)cc1` is inactive: 49%.
The figure for `COc1ccc(-c2noc(CSc3nc4ccccc4[nH]3)n2)cc1` is inactive: 55%; for `CCc1cccc(C)c1NC(=O)CCS(=O)(=O)c1ccc2c(c1)oc(=O)n2C` it is inactive: 82%; for `COc1cccc(CN(C(=O)c2oc3ccccc3c2C)C2CCS(=O)(=O)C2)c1` (centres undefined) it is inactive: 82%.
`O=C(Cc1ccc(Cl)cc1)Nc1ccc2oc(-c3ccccc3F)nc2c1`: the survival was inactive: 153%.
The figure for `CNC(=O)c1c(NC(=O)Cc2coc3ccc(OC)cc23)sc2c1CCCC2` is inactive: 87%.
With `CC(=O)Nc1sc2c(c1C(N)=O)CCCC2`, the survival is inactive: 101%.
With `O=C(COc1ccccc1)Nc1ccc2nc(SCC(=O)N3CCCC3)sc2c1`, the survival was inactive: 77%.
As for `COc1ccc(C2CC(=O)Oc3c2c(=O)n(C)c2ccccc32)c(OC)c1OC` (centres undefined), the survival was inactive: 64%.
For `O=c1nc(N(c2ccccc2)c2ccccc2)[nH]c(=O)[nH]1` the value was inactive: 109%; for `CCOc1ccc(NC(=O)CS(=O)(=O)Cc2nc(-c3ccc(C)cc3)oc2C)cc1`, inactive: 91%.
Consider `Fc1ccc(N2CCN(c3ncnc4c3nc3n4CCCC3)CC2)cc1`, for which the survival was inactive: 126%.
For the compound `COc1ccc(OC)c2sc(N(CCCN(C)C)C(=O)c3ccco3)nc12`, the survival was inactive: 134%.
On to `Cc1ccccc1CNC(=O)CCSCc1cnn(-c2ccccc2)c1-n1cccc1`, for which the survival is inactive: 79%.
For `COc1ccc(C2c3c(-c4ccc(F)cc4)n[nH]c3C(=O)N2c2ccccc2)cc1OC` (centres undefined) the value was inactive: 134%.
For `CCOC(=O)c1ccc(NC(=O)c2ccc(-c3cccc(Cl)c3C)o2)cc1` the value was inactive: 59%; for `CCOc1ccc(CCNC(=O)c2cc3c(-c4ccccc4F)nn(C)c3s2)cc1OCC`, inactive: 73%; for `O=c1c2oc3ccccc3c2ncn1Cc1ccc(Br)cc1`, inactive: 111%.
The figure for `COc1ccc(C2c3c(oc4ccccc4c3=O)C(=O)N2c2nc(C)c(C)s2)cc1` (centres undefined) is inactive: 71%; for `CCSc1nnc(CNc2ccc(F)cc2)n1CC1CCCO1` (centres undefined) it is inactive: 96%; for `CCOc1ccc(C(NC(=O)c2cc(OC)c(OC)c(OC)c2)c2cc(Cl)c3cccnc3c2O)cc1` (centres undefined) it is inactive: 129%.
For the compound `Cc1ccc2nc(CN3CCN(S(=O)(=O)c4ccccc4)CC3)oc2c1`, the survival was inactive: 73%.
With `Cc1nc2nc(C)c(CCC(=O)NCCc3ccccc3)c(C)n2n1`, the survival was inactive: 70%.
The figure for `O=C(Cn1cc(S(=O)(=O)Cc2ccccc2Cl)c2ccccc21)Nc1cccc(C(F)(F)F)c1` is inactive: 71%.
With `Cc1ccc(S(=O)(=O)N(CC(=O)Nc2c(C)cccc2C)c2cccc(Cl)c2)cc1`, the survival was inactive: 72%.
With `COC(=O)c1cc(C)nc2c1c(=O)nc(SCc1c(C)cc(C)cc1C)n2C1CC1`, the survival is inactive: 127%.
For the compound `CCc1ccc(NC(=O)CSc2nc3ccccc3c(=O)n2CCC(=O)NC2CCCCC2)cc1`, the survival was inactive: 76%.
For `CCC(Sc1nc2cc3c(cc2c(=O)n1CCCC(=O)NCc1ccc2c(c1)OCO2)OCO3)C(=O)NCCCOC` (centres undefined), the survival is inactive: 64%.
For `CCC(=O)N1c2ccc(S(=O)(=O)N3CCCCCC3)cc2CC1C` (centres undefined) the value was inactive: 68%; for `COC(=O)c1cc2oc3ccccc3c2n1CC(=O)Nc1ccc(N(C)C)cc1`, inactive: 70%; for `Cc1ccc(NC(=O)COc2ccc(-c3nn(C)c(=O)c4ccccc34)cc2)c(C)c1`, inactive: 92%.
As for `Nc1c(-c2nc(-c3ccccc3Cl)no2)nnn1-c1ccccc1F`, the survival was inactive: 91%.
For `COc1ccc(NC(=O)C(NS(=O)(=O)c2cccc3nsnc23)c2ccccc2)cc1` (centres undefined) the value was inactive: 89%; for `CCOc1cc(-c2nnc(SCC(=O)NCCCOC)nc2-c2ccc(OC)c(OCC)c2)ccc1OC`, inactive: 75%; for `Cn1cc(S(=O)(=O)N2CCCCC2)cc1C(=O)NCc1ccc(Cl)cc1`, inactive: 88%.
Turning to `CCC(=O)Nc1nnc(S(=O)(=O)N2CCCCCC2)s1`, the survival is inactive: 84%.
Consider `CCCCSc1nnc2c(n1)OC(c1ccc(C)s1)Nc1ccccc1-2` (centres undefined), for which the survival was inactive: 56%.
On to `CCC(CC)c1nn2cc(-c3ccccc3)nc2s1`, for which the survival was inactive: 100%.
The figure for `Cc1ccc(N2CCN(S(=O)(=O)c3cc(Br)cc4c3N(C(=O)C3CC3)CC4)CC2C)cc1` (centres undefined) is inactive: 68%; for `CCCN(C(=O)c1cn(CC(C)C)c(=O)c2cc(OC)c(OC)cc12)c1cccc(C)c1` it is inactive: 138%.
In the case of `COc1ccc(-c2cn3c(n2)sc2cc(C(=O)N4CCCCC4)ccc23)cc1`, the survival was inactive: 79%.
For `Cc1cc(C)c2[nH]c(=O)c(CN(CCN3CCOCC3)C(=S)NCC3CCCO3)cc2c1` (centres undefined) the value was inactive: 115%; for `CCS(=O)(=O)N1CC(=O)N(c2ccc(C)c(C)c2)C(C)(C(=O)NC2CCCCCC2)C1` (centres undefined), inactive: 71%; for `COc1ccc(N2CC(NC(=O)Cc3cccs3)CC2=O)cc1OC` (centres undefined), inactive: 67%.
The figure for `Cc1cc(S(=O)(=O)Nc2ccc3[nH]c(=O)sc3c2)ccc1F` is inactive: 73%.
For `CCCCOC(=O)c1ccc(NC(=O)/C(C#N)=C/c2ccc(C)o2)cc1`, the survival was inactive: 82%.
Consider `CCc1cc2c(NCC3CCCO3)ncnc2s1` (centres undefined), for which the survival was inactive: 107%.
For `CCCCNS(=O)(=O)c1ccc2nc(-c3cccnc3)cc(C(=O)NCCCOCC)c2c1` the value was inactive: 71%; for `Cc1ccc(NC(=O)COCc2cc(-c3cccs3)on2)cc1Cl`, inactive: 65%; for `CCOc1ccccc1CNC(=O)CCn1cccn1`, inactive: 93%.
For `Cc1[nH]c2ccccc2c1C(=O)C(=O)NC1CC(=O)N(c2ccccc2)C1` (centres undefined) the value was inactive: 83%; for `CCc1ccccc1N1C(=O)N(C)c2ccccc2S1(=O)=O`, inactive: 66%.
For `COC(=O)c1ccc(NC(=O)CN(c2cccc(C(F)(F)F)c2)S(C)(=O)=O)cc1`, the survival was inactive: 88%.
For `Cc1cccc(-n2c(SCC(=O)Nc3ccccc3C)nc3c(oc4ccccc43)c2=O)c1` the value was inactive: 86%.
For `CCCN(CCC)CCCNC(=O)C1CCN(S(=O)(=O)c2cccc3nsnc23)CC1`, the survival is inactive: 90%.
As for `CCOc1ccc(S(=O)(=O)N2CCN(c3ccc(C)cc3C)CC2)c2ccccc12`, the survival was inactive: 81%.
Regarding `COc1cccc(CSc2nc(-c3ccccc3OC)nc3c2Cc2c(CO)cnc(C)c2O3)c1`, the survival is inactive: 78%.
With `COc1cc(C2/C(=C(\O)c3ccccc3)C(=O)C(=O)N2CCC(=O)O)ccc1O` (centres undefined), the survival is inactive: 102%.
As to `CSc1nn(Cc2ccc(F)cc2)c(N)c1S(=O)(=O)c1ccc(Cl)cc1`, the survival is inactive: 78%.
The figure for `O=C1COc2ccc(-c3cc(-c4ccc(F)cc4)c4c(n3)-c3ccccc3OC4)cc2N1` is inactive: 80%.
As to `CCN(C(=O)c1ccc2c(=O)n3c(nc2c1)CCCCC3)c1cc(C)ccc1C`, the survival was inactive: 73%.
On to `CCc1nc(SCc2ccccc2)[nH]c(=O)c1C`, for which the survival was inactive: 102%.
The figure for `CCC(=O)N1CCc2cc(S(=O)(=O)NC(C(=O)NCCc3ccc(C)cc3)C(C)C)ccc21` (centres undefined) is inactive: 92%.
On to `CCCOc1cccc(C2c3c(oc4cc(C)c(C)cc4c3=O)C(=O)N2CCCN2CCOCC2)c1` (centres undefined), for which the survival was inactive: 78%.
On to `CSc1cccc(NC(=O)CN(C)S(=O)(=O)c2ccc3c(c2)CCCN3C(C)=O)c1`, for which the survival is inactive: 70%.
The figure for `Cc1ccc(-c2nc3cc(NC(=O)c4cc(Br)ccc4Cl)ccc3o2)cc1` is inactive: 85%; for `CCOc1ccccc1C(=O)N1CCCCC1CCN1CCOCC1` (centres undefined) it is inactive: 85%; for `Cc1ccc(-c2n[nH]c3c2C(c2cccs2)N(c2ccc(Cl)cc2)C3=O)cc1` (centres undefined) it is inactive: 80%.
For `Cc1ccc(C)c(C(=O)CSc2nc3cc(C(=O)NC4CCCC4)ccc3c(=O)n2CC2CCCO2)c1` (centres undefined) the value was inactive: 85%.
For the compound `COCc1cc(C)n(CC(=O)Nc2cccc(C(C)=O)c2)c(=O)c1C#N`, the survival is inactive: 81%.
Consider `CC(C)CCNC(=O)c1ccc2c(c1)N(C)C(=O)c1ccccc1S2`, for which the survival was active: -6%.
Turning to `CC1CCN(S(=O)(=O)c2cn(CC(=O)Nc3ccc(F)cc3)c(=O)c3ccccc23)CC1`, the survival was inactive: 67%.
As to `CC(C)c1nn2c(=O)cc(COC(=O)c3ccccc3Cl)nc2s1`, the survival is inactive: 69%.
`COc1ccc(N2CCN(Cc3nc(-c4ccc(C)cc4)no3)CC2)cc1`: the survival is inactive: 74%.
Take `CCOc1cc2[nH]c(=O)n(CCCCCC(=O)NC(C)CC)c(=O)c2cc1OCC` (centres undefined): the survival is inactive: 74%.
The figure for `CCn1cc2nc(SCc3cccc(F)c3)n(CCc3ccccc3)c(=O)c2n1` is inactive: 70%; for `CCC(Cc1ccccc1)NC(=O)Cn1ncc2c3ccccc3n(Cc3ccc(F)cc3)c2c1=O` (centres undefined) it is inactive: 131%; for `O=C(Nc1cnn(C23CC4CC(CC(C4)C2)C3)c1)c1cc(-c2ccccc2)on1` it is inactive: 120%.
The figure for `O=C(O)CCn1ccc2cc(S(=O)(=O)N3CCCCC3)ccc21` is inactive: 114%; for `COc1ccc(Cl)cc1NC(=O)CCCS(=O)(=O)c1nc(-c2ccc(OC)c(OC)c2)cc(C(F)(F)F)n1` it is inactive: 79%.
As for `Cc1cc(C)n2c(Nc3cccc(C(F)(F)F)c3)c(-c3ccsc3)nc2n1`, the survival is inactive: 89%.
For `Cc1nnc(NC(=O)CSCc2cc(=O)c3ccc(C)c(C)c3[nH]2)s1` the value was inactive: 102%; for `O=C(NCc1ccccc1Cl)C1CCN(c2ncnc3c2nc2n3CCCCC2)CC1`, inactive: 82%; for `COc1ccc(-c2csc(-c3c(N)c(C(=O)c4ccccc4)n4ccccc34)n2)cc1`, inactive: 67%.
For `Cc1ccc2oc(=O)c3cc(C(=O)Nc4cccc(C#N)c4)sc3c2c1` the value was inactive: 92%.
